B1: LINE1-full (parent)
chain: UACGUAGGUGGUUUUCCCCUGAUAGUGCUAAGGGGGCCUGGAAGUUUGGACUGGGCAGAGCUCAACACAGCGUGGCAAAGUGGCUGUGGCUAGACUGCCUCUCUGGAUUCCUCGUCACUCAGCAGGGCAUCUCUGAGAGAAAUGCC

Read counts are not given, so values of variants with three or more changes are uncertain.

The variants in this series derive from B1. As to the kind of experiment: self-cleavage, relative activity (ratio to wild type); higher = more cleavage; in vitro, sequencing; the parent is a self-cleaving ribozyme.
For the variant UACGUAGGUGGUUUUCCCCUGAUAGUGCUAAGGGGGCCUGGAGGUUUGGACUGGGCAGAGCUCAACACAGCGUGGCAAAGUGGCUGUGGCUAGACUGCCUCUCUGGAUUCCUCGUCACUCAGCAGGGCAUCUCUGAGAGGAGUGCC [A43G A140G A142G], the self-cleavage worked out at 2.04.
The figure for UACGUAGGUGGUUUUCCCCUGAUAGUGCUAAGGGGGCCUGGAGGUUUGGACUGGGCAAAGCUCAACACAGCGUGACAAAGUGGCUGUGGCUAGACCGCCUCUCUGGAUUCCUCGUCACUCAGCAGGGCAUCUCUGAGAGAAAUGCC [A43G G58A G75A U96C] is 0; for UACGUAGGUGGUUUUCCCCUGAUAGUGCUAAGGGGGCCUGGAGGUUUGGACUGGGCAGAGCUCAACACAGCGUGGUAAAGUGGCUGUGGCUAGACUGCCUCUCUGGAUACCUCGUCACUCAGCAGGGCAACUCUGAGAGAAAUGCC [A43G C76U U109A U130A] it is 2.42.
Consider UACGUAGGUGGUUUUCCCCUGAUAGUGCUAAGGGGGCCUGGAGGAUUGGACUGGGCAGAGCUCAACACAGCGUGGCAAAGUGGCUGUGGCUAGACUGCCUCUCUGGAUUCCUCGUCACUCAGCAGGGCAUCUCUGAUAGAAAUGCC [A43G U45A G137U], for which the self-cleavage turned out to be 1.06.
Under UACGUAGGUGGUUUUCCCCUGAUAGUGCUAAGGGGGCCUGGAGGUUUGGACUGGGCAGAGCUCAACACAGCGUGGCAAAGUGGCUGUGGCUAGACUGCCUCUCUAGAUUCCUCGUCGCUCAGCAGGGCAUCUCUGGGAGAAAUGCC [A43G G105A A117G A136G] stands 1.22; under UACGUAGGUGGUUUUCCCCUGAUAGUGCUAAGGGGGCCUGGAGGUUUGGACUAGGCAGAGCUCAACACAGCGUGGCAAAGUGGCUGUGGCUAGACUGCCUCUCUGGAUUCCUCGCCACUCGGCAGGGCAUCUCUGAGAGAAAUGCC [A43G G53A U115C A121G], 1.92.
Under UACGUAGGUGGUUUUCCCCUGAUAGUGCUAAGGGGGCCUGGAGGUUUGGACUGGGCAGAGCUCAACACAGCGUGGCAUAGUGGCCGUGGCCAGACUGCCUCUCUGGAUUCCUCGUCACUCAGCAGGGCAUCUCUGAGAGAAAUGCC [A43G A78U U85C U91C] stands 0.17; under UACGUAGGUGGUUUUCCCCUGAUAGUGCUAAGGGGGCCUGGAGGUUUGGACUGGGCAGAGCUCAACACAGCGUGGCAAAGUGGCUGUGGCUAGACUGCCUCUCUGGAUUCCUCGUCUCUCAGCAGGGCAUCUCUGAGAGAAACGCC [A43G A117U U143C], 1.07; under UACGUAGGUGGUUUUCCCCUGAUAGUGCUAAGGGGGCCUGGAGGUUUGGACUGGGCAGAGUUCAACACGGCGUGGCAAAGUGGCUGCGGCUAGACUGCCUCUCUGGAUUCCUCGUCACUCAGCAGGGCAUCUCUGGGUGAAAUGCC [A43G C61U A69G U87C A136G A138U], 0.09.
The figure for UACGUAGGUGGUUUUCCCCUGAUAGUGCUAAGGGGGCCUGGAGGUUUGGACUGGGCAGAGCUCAACACAGCGUGACAAAGUGGCUGUGGCUAGCCUGCCUCUCUGGAUUCCUCGUCACUCAGCAGGGCAUCUCUGAGAGAAAUGCC [A43G G75A A94C] is 0.05; for UACGUAGGUGGUUUUCCCCUGAUAGUGCUAAGGGGGCCUGGAGGUUUGGACUGGGCAGAGCUCAACACAGCGUGGCAAAGUGGCUGUGGCUGGACUGCCUCUCUGGAUUCCUCGUCACUCAGCAGGGCAUCUCUGAGAGAGAUGCC [A43G A92G A141G] it is 0.
As to UACGUAGGUGGUUUUCCCCUGAUAGUGCUAAGGGGGCCUGGAGGUUUGGACUGGGCAGAGCUCAACACAGCGUGGCAAGGUGGCUGUGGCUAGACUGCCACUCUGGAUUCCUCGUCACACAGCAGGGCAUCUCUGAGAGAAAUGCC [A43G A79G U100A U119A], the self-cleavage was 0.84.
Take UACGUAGGUGGUUUUCCCCUGAUAGUGCUAAGGGGGCCUGGAGGUUUGGACUGGGGAGAGCCCAACACAGCGUGGCAAAGUGGCUGUGGCUAGACUGCCUCUCUGGAUUCCUCGUCACUCAGCAGGGCAUCUCUGAGAGAAAUGCC [A43G C56G U62C]: the self-cleavage amounted to 0.03.
The figure for UACGUAGGUGGUUUUCCCCUGAUAGUGCUAAGGGGGCCUGGAGGUUUGGACUGGGCAGAGCUCAACACAGCGUGGCAAAGUGGCUGUGGCUAGACUGCCUCUCUGGAUUCCUCGUCACUCAGGGGGGCAUCUCUGAGGGAAAUGCC [A43G C123G A124G A138G] is 0.92.
As to UACGUAGGUGGUUUUCCCCUGAUAGUGCUAAGGGGGCCUGGAGGUUUGGACUGGGCAAAGCUCAACACAGCGUGGCAAGGUGGCUGUGGCUAGACUGCCUCUCUGGAUUCCUCGUCACUCAGCAGGGCAUCUCUGAGAGAAGUGCC [A43G G58A A79G A142G], the self-cleavage was 0.
The figure for UACGUAGGUGGUUUUCCCCUGAUAGUGCUAAGGGGGCCUGGAGGUUUGGACUGGGCAGAGCUCAACACAGCGUGGCAAAGUGGCUGUGGCUAGACUACCUCUCUGGAUUCCUCGUCACGCAGCAGGGCAUCUCUGAGAGAAAUGCC [A43G G97A U119G] is 0.06; for UACGUAGGUGGUUUUCCCCUGAUAGUGCUAAGGGGGCCUGGAGGUUUGGACUGGGCAGAGCUCAACACAGCGUGGCAAAGUGGCUGUGGCUAGACUGCCUCUCUGGAUUCCUCGUCACUCAGCAGGGCUUCUCUGAGAGAAGUGCC [A43G A129U A142G] it is 1.53.
The figure for UACGUAGGUGGUUUUCCCCUGAUAGUGCUAAGGGGGCCUGGAGGUUUAGACUGGGCAGAGCUCAACACAGCGUGGCAAAGAGGCUGUGGCUAGACUGCCUCUCUGGAUUCCUCGUCACUCAGCAGGGCAUCUCUGAGAGAGAUGCC [A43G G48A U81A A141G] is 1.96; for UACGUAGGUGGUUUUCCCCUGAUAGUGCUAAGGGGGCCUGGAGGUUUGGACUGGGCAGAGCUCAACACAGCGUGGCAAAGUGGCUGUGGCUAGACUGCCUCUCUGGAUUCCUCGUCACUCAGCAGGGCUCCUCUGAGAGAAAUGCC [A43G A129U U130C] it is 1.09.
Under UACGUAGGUGGUUUUCCCCUGAUAGUGCUAAGGGGGCCUGGAGGUUUGGACUGGGUAGAGCUCAACACAGCGCGGCAAAGUGGCUGUGGCUAGACUGCCUCUCUGGAUUCCUCGUCACUCAGCAGGGCAUCUCUGAGAGAAAUGCC [A43G C56U U73C] stands 0.07; under UACGUAGGUGGUUUUCCCCUGAUAGUGCUAAGGGGGCCUGGAGGUUUGGACUGGGCAGAGCUCAACACAGCGUGGCAAAGUGGCUGUGGCUAGACUGCCUCUCUGGAUUCCUCGUCACUCAGCGGGGCAUCUCUGAGAGAAUUGCC [A43G A124G A142U], 0.82.
With UACGUAGGUGGUUUUCCCCUGAUAGUGCUAAGGGGGCCUGGAGGUUUGGACUGGGCAGAGCUCAACACAGCGUGGCAAGGUGUCUGUGGCUAGACUGCCUCUCUGGAUUCCUCGCCACUCAGCAGGGCAUCUCUGAGAGAAAUGCC [A43G A79G G83U U115C], the self-cleavage is 0.83.
The figure for UACGUAGGUGGUUUUCCCCUGAUAGUGCUAAGGGGGCCUGGAGGUUUGGAUUGGGCAGAGCUCAACACAGCGUGGCAAAGUGGCUGUGGCUAGACUGCCUCUCUGGAUUCCUCGUCACUCAGCAGGGCAUCUCUGAGAGAAGUGCC [A43G C51U A142G] is 1.31.
Under UACGUAGGUGGUUUUCCCCUGAUAGUGCUAAGGGGGCCUGGAGGUUUGGACUAGGCAGAGCUCAACACAGCGUGGCAAAGUGGCUGUGGCUAGACUGCCUCUCUGGAUUCCUCGCCACUCAGCAGGGCAUCUCUGAGAGAAAUGCC [A43G G53A U115C] stands 1.6; under UACGUAGGUGGUUUUCCCCUGAUAGUGCUAAGGGGGCCUGGAGGUUUAGACUGGGCAGAGCUCAACACAGCGUGGCAAAGUGGCUGUGGCUGGACUGCCUCUCUGGAUUCCUUGUCACUCAGCCGGGCAUCUCUGAGAGAAAUGCC [A43G G48A A92G C113U A124C], 0.1; under UACGUAGGUGGUUUUCCCCUGAUAGUGCUAAGGGGGCCUGGAGGUUUGGACUGGGCAGAGCUCAACACAGCGUGGCAAAGUGGCUGUGGCUAGACUGCCUCUCUGGGUUCCUCGUCACUCAGCAGGGCAUCUCCGAGAGAAGUGCC [A43G A107G U134C A142G], 2.3.
The figure for UACGUAGGUGGUUUUCCCCUGAUAGUGCUAAGGGGGCCUGGAGGUUUGGACUGGGCAGAGCUCAACACAGCGUGGCAAGGUGGCAGUGGCUAGACUGCCUCUCUGGAUUCCUCGUCACUCAGCAGGGCAUCUCUGAGAGAAAUGCC [A43G A79G U85A] is 0.04; for UACGUAGGUGGUUUUCCCCUGAUAGUGCUAAGGGGGCCUGGAGGUUUGGACUGGGCAGAGCUUAACACAGCGUGGCAAAGUGGCUGUGGCUAGACUGCCCCUCUGGAUUCCUCGUCACUCAGCAGGGCAUCUCUGAGAGAAAUGCC [A43G C63U U100C] it is 0.69; for UACGUAGGUGGUUUUCCCCUGAUAGUGCUAAGGGGGCCUGGAGGUUUGGACUGGGCAGAGCUCAACACAGCGUGGCAAAGUAGCUGUGGCUAGACUGCCUCUCUGGAUUCCUCGUCACUCAGCAGGGCAUCUCUGUGAGAAAUGCC [A43G G82A A136U] it is 0.95.
Consider UACGUAGGUGGUUUUCCCCUGAUAGUGCUAAGGGGGCCUGGAGGUUUGGACUGGGCAGAGCUCAACACAGCGUGGCAAAGUGGCUGUGGCUAGACUGCCUCUCUGGAUUCCUCGUCACUCAGCGGGGCAUCUCCGAGAGAAAUGCC [A43G A124G U134C], for which the self-cleavage is 0.4.
The figure for UACGUAGGUGGUUUUCCCCUGAUAGUGCUAAGGGGGCCUGGAGGUUUGGAAUGGGCAGAGCUCAACACGGCGAGGCAAAGUGGCUGUGGCUAGACUGCCUCUCUGGAUUCCUCGUCACUCAGCAGGGCUUCUCUGAGAGAAAUGCC [A43G C51A A69G U73A A129U] is 0.31.
As to UACGUAGGUGGUUUUCCCCUGAUAGUGCUAAGGGGGCCUGGAGGUUUGGACUGGGCAGAGUUCAACACAGCGUGGCAAAGUGGCUGUGGCUGGACUGCCUCUCGGGAUUCCUCGUCACUCAGCAGGGCAUCCCUGAGAGAAAUGCC [A43G C61U A92G U104G U132C], the self-cleavage stood at 0.
In the case of UACGUAGGUGGUUUUCCCCUGAUAGUGCUAAGGGGGCCUGGAGGUUUGGACUGGGCAGAGCUCAACACAGCGUGGCAAAGUGGCUGUGGCUAGACUGCCUCUCUGGAUUCCUCGUCACUCAGCAAGGCGUCUCUGAGAGAAAUGCC [A43G G125A A129G], the self-cleavage was determined as 1.31.
The figure for UACGUAGGUGGUUUUCCCCUGAUAGUGCUAAGGGGGCCUGGAGGUUUGGACUGGGCAGAGCUCAACACAGCGUGGCAAAGUGGCUGUGGCUAGACUGCCUCUCUGGAUUCCUCGUCACUCAUCAGGGCACCUCUGAGAGAAAUGCC [A43G G122U U130C] is 1.25; for UACGUAGGUGGUUUUCCCCUGAUAGUGCUAAGGGGGCCUGGAGGUUUGGACUGGGCAGAGCUCAAUACAGCGUGGCAAAGUGGCUGUGGCUAGACCGCCUCUCUGGAUUCCUCGUCACUCAGCAGGGCAUCUCUGAGAGAAAUGCC [A43G C66U U96C] it is 0.08.
Under UACGUAGGUGGUUUUCCCCUGAUAGUGCUAAGGGGGCCUGGAGGUUUGGACUGGGCAGAGCUCAACACAGCGUGGCAAGGUGGCUGUGGCUAGACUGCCUCUCUGGAUUCCUCGUCACUCAGCAGGGCAUCUCUGAGAGAAAAGCC [A43G A79G U143A] stands 2.51.
For UACGUAGGUGGUUUUCCCCUGAUAGUGCUAAGGGGGCCUGGAGGUUUGGACUGGGCAGAGCUCAACACAGCGUGGCAAAGUGGCUGUGGCUAGACUGCCUCUCUGGGUUCCUCGUCACUCAGCAGGGCAUCUCUGAGAGAAGUGCC [A43G A107G A142G], the self-cleavage was 0.66.
As for UACGUAGGUGGUUUUCCCCUGAUAGUGCUAAGGGGGCCUGGAGGUUUGGACUGGGCAGAGUUCAACACAGCGCGGCAAAGUGGCUGUGGCCAGACUGCCUCUCUGGAUUCCUCGUCACUCAGCAGGGCAUCUCUGAGAGAAAUGCC [A43G C61U U73C U91C], the self-cleavage was 0.04.
The figure for UACGUAGGUGGUUUUCCCCUGAUAGUGCUAAGGGGGCCUGGAGGUUUGGACUGGGCAGAGCUUAACACAGCGUGGCAUAGUGGCUGUGGCUAGACUGCCUCUCUGGAUUCCUCGUCACUCAGCAGGGCAUCUCUGAGAGAAAUGCC [A43G C63U A78U] is 0.49.

For the origin of these results see the RNAGym collection of RNA variant scans (doi:10.7554/elife.90254).
